Numbering of substitutions follows the chain as printed; changes in the protein carry UniProt numbers. The list shows a part of the results.
T1: RBFOX1 RRM RbFoxmut (Fox-RRM*) (Homo sapiens, UniProt Q9NWB1 109-208, R118D;E147R;N151S;E152T)
T1 sequence: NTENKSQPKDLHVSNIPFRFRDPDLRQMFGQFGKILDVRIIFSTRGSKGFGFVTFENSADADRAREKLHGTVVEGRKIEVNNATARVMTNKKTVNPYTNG

B1: AAUCUGU (DNA:RNA)
RNA: GGGAGACCGGAAUUCAGAUUGUCCAAUCUGUUUAAAUCCCGUCGUAGCCACCA
DNA 1: CAATCTGAATTCCGGTCTCCC
DNA 2: TGGTGGCTACGACGGGATT
B2: CCCUCAG (DNA:RNA)
RNA: GGGAGACCGGAAUUCAGAUUGUCCCCCUCAGUUAAAUCCCGUCGUAGCCACCA
DNA 1: CAATCTGAATTCCGGTCTCCC
DNA 2: TGGTGGCTACGACGGGATT
B3: GGUUCAU (DNA:RNA)
RNA: B2 RNA with C25G, C26G, C27U, G31U
DNA 1: CAATCTGAATTCCGGTCTCCC
DNA 2: TGGTGGCTACGACGGGATT
B4: GUGUCUG (DNA:RNA)
RNA: B2 RNA with C25G, C26U, C27G, A30U
DNA 1: CAATCTGAATTCCGGTCTCCC
DNA 2: TGGTGGCTACGACGGGATT
B5: UAACACU (DNA:RNA)
RNA: B1 RNA with A25U, U27A, U29A, G30C
DNA 1: CAATCTGAATTCCGGTCTCCC
DNA 2: TGGTGGCTACGACGGGATT
B6: AAGUUUA (DNA:RNA)
RNA: B1 RNA with U27G, C28U, G30U, U31A
DNA 1: CAATCTGAATTCCGGTCTCCC
DNA 2: TGGTGGCTACGACGGGATT
B7: UGUCCCC (DNA:RNA)
RNA: B1 RNA with A25U, A26G, U29C, G30C, U31C
DNA 1: CAATCTGAATTCCGGTCTCCC
DNA 2: TGGTGGCTACGACGGGATT
B8: GGCGAAA (DNA:RNA)
RNA: B2 RNA with C25G, C26G, U28G, C29A, G31A
DNA 1: CAATCTGAATTCCGGTCTCCC
DNA 2: TGGTGGCTACGACGGGATT
B9: UGGACAC (DNA:RNA)
RNA: B2 RNA with C25U, C26G, C27G, U28A, G31C
DNA 1: CAATCTGAATTCCGGTCTCCC
DNA 2: TGGTGGCTACGACGGGATT
B10: CAAAUAG (DNA:RNA)
RNA: B2 RNA with C26A, C27A, U28A, C29U
DNA 1: CAATCTGAATTCCGGTCTCCC
DNA 2: TGGTGGCTACGACGGGATT
B11: ACAGUCG (DNA:RNA)
RNA: B1 RNA with A26C, U27A, C28G, G30C, U31G
DNA 1: CAATCTGAATTCCGGTCTCCC
DNA 2: TGGTGGCTACGACGGGATT
B12: GUGUGGU (DNA:RNA)
RNA: B1 RNA with A25G, A26U, U27G, C28U, U29G
DNA 1: CAATCTGAATTCCGGTCTCCC
DNA 2: TGGTGGCTACGACGGGATT
B13: AAUCAAU (DNA:RNA)
RNA: B1 RNA with U29A, G30A
DNA 1: CAATCTGAATTCCGGTCTCCC
DNA 2: TGGTGGCTACGACGGGATT
B14: GACUUCG (DNA:RNA)
RNA: B2 RNA with C25G, C26A, C29U, A30C
DNA 1: CAATCTGAATTCCGGTCTCCC
DNA 2: TGGTGGCTACGACGGGATT
B15: UCGCAUA (DNA:RNA)
RNA: B1 RNA with A25U, A26C, U27G, U29A, G30U, U31A
DNA 1: CAATCTGAATTCCGGTCTCCC
DNA 2: TGGTGGCTACGACGGGATT
B16: AAAAUCA (DNA:RNA)
RNA: B1 RNA with U27A, C28A, G30C, U31A
DNA 1: CAATCTGAATTCCGGTCTCCC
DNA 2: TGGTGGCTACGACGGGATT
B17: CGAUCAG (DNA:RNA)
RNA: B2 RNA with C26G, C27A
DNA 1: CAATCTGAATTCCGGTCTCCC
DNA 2: TGGTGGCTACGACGGGATT
B18: AGUACUA (DNA:RNA)
RNA: B1 RNA with A26G, C28A, U29C, G30U, U31A
DNA 1: CAATCTGAATTCCGGTCTCCC
DNA 2: TGGTGGCTACGACGGGATT
B19: CCGGAAA (DNA:RNA)
RNA: B2 RNA with C27G, U28G, C29A, G31A
DNA 1: CAATCTGAATTCCGGTCTCCC
DNA 2: TGGTGGCTACGACGGGATT
B20: UCUCAUG (DNA:RNA)
RNA: B1 RNA with A25U, A26C, U29A, G30U, U31G
DNA 1: CAATCTGAATTCCGGTCTCCC
DNA 2: TGGTGGCTACGACGGGATT

Each binder was assayed against T1, RBFOX1 RRM RbFoxmut (Fox-RRM*) (assay: EMSA; HiTS-Eq, 1 nM pool, 10 min; buffer printed only for the single-RNA assays: 10 mM Tris pH 7.5, 150 mM NaCl, 3.4 mM EDTA, 0.001% NP-40, 30 C). Details: tags: His6 N-terminal (pET28a); label: 5' 32P.
How it was run: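 Purified wild-type or mutant RbFox RRM at increasing concentrations was equilibrated with 1 nM of 5′-radiolabelled RNA carrying 7 randomized nucleotides for 10 min in 50 µL. Unbound RNA was separated by 8% native PAGE and sequenced. Relative association constants came from read-count changes of each RNA species compared with the control reaction, normalised to the cognate motif.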

Row | Binder | binding signal
1 | B1 | 0.0567 KA relative to UGCAUGU
2 | B2 | 0.134 KA relative to UGCAUGU
3 | B3 | 0.0987 KA relative to UGCAUGU
4 | B4 | 0.29 KA relative to UGCAUGU
5 | B5 | 0.0542 KA relative to UGCAUGU
6 | B6 | 0.141 KA relative to UGCAUGU
7 | B7 | 0.0735 KA relative to UGCAUGU
8 | B8 | 0.0687 KA relative to UGCAUGU
9 | B9 | 0.0734 KA relative to UGCAUGU
10 | B10 | 0.0858 KA relative to UGCAUGU
11 | B11 | 0.081 KA relative to UGCAUGU
12 | B12 | 0.156 KA relative to UGCAUGU
13 | B13 | 0.0475 KA relative to UGCAUGU
14 | B14 | 0.0767 KA relative to UGCAUGU
15 | B15 | 0.125 KA relative to UGCAUGU
16 | B16 | 0.0862 KA relative to UGCAUGU
17 | B17 | 0.0789 KA relative to UGCAUGU
18 | B18 | 0.0837 KA relative to UGCAUGU
19 | B19 | 0.0655 KA relative to UGCAUGU
20 | B20 | 0.138 KA relative to UGCAUGU

Source: publication PMC9911399, “Two distinct binding modes provide the RNA-binding protein RbFox with extraordinary sequence specificity”
